{
  "source": "paper PMC4336329",
  "about": "(PLoS ONE, 2015)",
  "note": "Among all 310,000 compounds or so, about 2,200 (0.71%) showed an effect of 50% or more. The effect is printed as a negative number. This is one part of the list.",
  "data": [
    {"biological_target": "human ether-à-go-go-related gene (hERG) potassium channel (human, UniProt Q12809)", "sequence (Q12809 whole entry, looked up)": "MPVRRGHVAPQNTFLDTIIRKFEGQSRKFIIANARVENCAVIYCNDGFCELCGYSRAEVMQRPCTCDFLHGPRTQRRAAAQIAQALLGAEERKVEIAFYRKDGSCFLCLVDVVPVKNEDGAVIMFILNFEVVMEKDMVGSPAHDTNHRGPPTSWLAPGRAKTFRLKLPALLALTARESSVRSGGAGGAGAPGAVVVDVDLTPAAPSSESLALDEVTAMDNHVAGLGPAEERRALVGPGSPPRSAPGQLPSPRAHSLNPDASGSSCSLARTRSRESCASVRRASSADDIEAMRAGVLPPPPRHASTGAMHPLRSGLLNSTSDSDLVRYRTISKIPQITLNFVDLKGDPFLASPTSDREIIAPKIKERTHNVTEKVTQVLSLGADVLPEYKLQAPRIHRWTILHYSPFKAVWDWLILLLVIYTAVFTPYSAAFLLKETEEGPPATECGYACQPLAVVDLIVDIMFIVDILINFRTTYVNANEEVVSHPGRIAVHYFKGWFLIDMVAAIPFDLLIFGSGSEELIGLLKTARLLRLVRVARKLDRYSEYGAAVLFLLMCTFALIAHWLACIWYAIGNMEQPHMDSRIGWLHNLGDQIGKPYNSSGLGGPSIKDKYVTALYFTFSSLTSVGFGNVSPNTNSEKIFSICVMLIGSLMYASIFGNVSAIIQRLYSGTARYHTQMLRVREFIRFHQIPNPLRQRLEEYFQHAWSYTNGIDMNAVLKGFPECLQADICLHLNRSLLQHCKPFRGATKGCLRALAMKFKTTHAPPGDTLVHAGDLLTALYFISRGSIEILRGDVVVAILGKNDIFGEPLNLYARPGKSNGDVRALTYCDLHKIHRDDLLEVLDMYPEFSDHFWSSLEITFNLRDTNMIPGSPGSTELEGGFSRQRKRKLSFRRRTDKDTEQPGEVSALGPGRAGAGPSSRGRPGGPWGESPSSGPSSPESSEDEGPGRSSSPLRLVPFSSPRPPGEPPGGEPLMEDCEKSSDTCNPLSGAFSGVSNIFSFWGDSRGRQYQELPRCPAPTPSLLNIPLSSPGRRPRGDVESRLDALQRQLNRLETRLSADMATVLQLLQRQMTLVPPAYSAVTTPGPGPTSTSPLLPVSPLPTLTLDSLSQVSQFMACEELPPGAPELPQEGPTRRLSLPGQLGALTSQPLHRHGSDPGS", "assay": "primary screen, population patch clamp on CHO cells stably expressing hERG", "units": {"hERG current change (%, negative = inhibition) at 1uM": "%"}, "values": [
      {"smiles": "Oc1ccccc1N1CCN(c2ccc3ccccc3n2)CC1", "hERG current change (%, negative = inhibition) at 1uM": 15.2},
      {"smiles": "CCN(Cc1ccccc1)c1c(C(=O)O)cnc2c1cnn2C", "hERG current change (%, negative = inhibition) at 1uM": 6.01},
      {"smiles": "CCOC(=O)Cc1csc(NC(=O)c2sc3nc4ccc(C)cc4cc3c2N)n1", "hERG current change (%, negative = inhibition) at 1uM": 0.0518},
      {"smiles": "COc1ccc(CCNC(=O)C2CCN(c3nccc(C)n3)CC2)cc1", "hERG current change (%, negative = inhibition) at 1uM": 15.2},
      {"smiles": "Cc1ccc(C(=O)C2COC(=O)C2)cc1", "note": "(centres unmarked)", "hERG current change (%, negative = inhibition) at 1uM": 7.85},
      {"smiles": "Cn1c(=O)c2c(nc(CN3CCN(CCO)CC3)n2Cc2cccc3ccccc23)n(C)c1=O", "hERG current change (%, negative = inhibition) at 1uM": 0.112},
      {"smiles": "CSc1nc(Oc2ccc3ccccc3c2)c2sccc2n1", "hERG current change (%, negative = inhibition) at 1uM": 3.76},
      {"smiles": "COc1ccc(N2CCN(C(=O)CSc3nnc(-c4cccnc4)n3-c3ccccc3)CC2)cc1", "hERG current change (%, negative = inhibition) at 1uM": 1.79},
      {"smiles": "CCCCCCc1cc2cc(S(=O)(=O)c3ccc(F)c(Cl)c3)c(=O)oc2cc1O", "hERG current change (%, negative = inhibition) at 1uM": 4},
      {"smiles": "CCOc1ccc(C(C(=O)NCCC(C)C)N(CCO)C(=O)c2snc(C(N)=O)c2N)cc1", "note": "(centres unmarked)", "hERG current change (%, negative = inhibition) at 1uM": -6.07},
      {"smiles": "COc1ccc(C(O)c2cc(OC)ccc2OP(=O)(N(C)C)N(C)C)cc1", "note": "(centres unmarked)", "hERG current change (%, negative = inhibition) at 1uM": 6.74},
      {"smiles": "COc1ccc(CC(=O)OC(C)C(=O)Nc2ccc(Cl)cn2)cc1", "note": "(centres unmarked)", "hERG current change (%, negative = inhibition) at 1uM": 4.24},
      {"smiles": "CCOc1ccc(C(=O)Nc2cccc(C)n2)cc1", "hERG current change (%, negative = inhibition) at 1uM": 5.92},
      {"smiles": "O=C(O)c1cccc(N2CCCC2)c1", "hERG current change (%, negative = inhibition) at 1uM": -5.14},
      {"smiles": "O=C(/C=C/c1ccco1)NC(=S)Nc1cccc(-c2nc3ccccc3o2)c1", "hERG current change (%, negative = inhibition) at 1uM": 11.3},
      {"smiles": "COc1ccccc1C(=O)NC(CCSC)C(=O)NNC(=O)c1csc(N2CCOCC2)n1", "note": "(centres unmarked)", "hERG current change (%, negative = inhibition) at 1uM": 12.2},
      {"smiles": "Cc1occc(=O)c1O", "hERG current change (%, negative = inhibition) at 1uM": 13.9},
      {"smiles": "CCN(CC)S(=O)(=O)c1ccc(C(=O)OCC(=O)N2CCN(C(=O)c3ccco3)CC2)cc1", "hERG current change (%, negative = inhibition) at 1uM": -11.3},
      {"smiles": "CCC(c1nnc(SCC(=O)NC23CC4CC(CC(C4)C2)C3)o1)N(C)C", "note": "(centres unmarked)", "hERG current change (%, negative = inhibition) at 1uM": 10.4},
      {"smiles": "CC1CN(C(=O)c2ccccc2Sc2ccccc2C#N)CC(C)O1", "note": "(centres unmarked)", "hERG current change (%, negative = inhibition) at 1uM": 3.47},
      {"smiles": "COc1cccc(N=Cc2c(O)c3ccccc3oc2=O)c1", "hERG current change (%, negative = inhibition) at 1uM": 24.2},
      {"smiles": "CCN(CC)c1ccc(C=C2C(=O)NC(=S)NC2=O)cc1", "hERG current change (%, negative = inhibition) at 1uM": 8.93},
      {"smiles": "CC(=O)Nc1ccc(S(=O)(=O)Nc2ccc3c(c2)n(C)c(=O)n3C)c(C)c1", "hERG current change (%, negative = inhibition) at 1uM": 14},
      {"smiles": "Cc1cc(Cl)ccc1OCCCC(=O)NN", "hERG current change (%, negative = inhibition) at 1uM": 7.49},
      {"smiles": "COc1ccc(OC)c(Nc2nc(NCCC(C)C)nc(N)c2[N+](=O)[O-])c1", "hERG current change (%, negative = inhibition) at 1uM": 11.5},
      {"smiles": "COC(=O)c1ccccc1NC(=O)C1CCN(S(=O)(=O)c2cc(C)ccc2OC)CC1", "hERG current change (%, negative = inhibition) at 1uM": 4.35},
      {"smiles": "CCNC(=O)CC1C(=O)N(c2ccccc2)C(=O)N1CCOC", "note": "(centres unmarked)", "hERG current change (%, negative = inhibition) at 1uM": 2.57},
      {"smiles": "Cc1cccc(NC(=O)CNC(=O)N2CC(=O)Nc3ccccc32)c1C", "hERG current change (%, negative = inhibition) at 1uM": 25.5},
      {"smiles": "Cc1sc2nc(CSc3ccccc3)nc(N3CCC(C(N)=O)CC3)c2c1C", "hERG current change (%, negative = inhibition) at 1uM": -0.683},
      {"smiles": "Cc1c(C(c2ccc(N(C)C)cc2)c2c(C)n(C)n(-c3ccccc3)c2=O)c(=O)n(-c2ccccc2)n1C", "hERG current change (%, negative = inhibition) at 1uM": 15.4},
      {"smiles": "COc1ccc(N2CCN(C(=O)COC(=O)COc3cc(C)cc(C)c3)CC2)cc1", "hERG current change (%, negative = inhibition) at 1uM": -2.01},
      {"smiles": "Clc1ccc(C2[C@H]3CN(Cc4cccnc4)[C@H](c4ccccc4)C34CC2(c2cccnc2)C4)cn1", "note": "(some centres unmarked)", "hERG current change (%, negative = inhibition) at 1uM": 3.18},
      {"smiles": "O=C(Nc1ccc(Cl)cc1)N1CCN(c2ccccc2)CC1", "hERG current change (%, negative = inhibition) at 1uM": 9.17},
      {"smiles": "COC(=O)C(Cc1cnc(Cl)s1)(C(=O)OC)c1ccccc1[N+](=O)[O-]", "hERG current change (%, negative = inhibition) at 1uM": 16.7},
      {"smiles": "Cc1cnc(NC(=O)c2cccc(S(=O)(=O)N3CCOCC3)c2)s1", "hERG current change (%, negative = inhibition) at 1uM": 8.14},
      {"smiles": "O=C(NC1CCCCC1)C(c1ccncc1)N(C(=O)Cc1cccs1)c1ccccc1", "note": "(centres unmarked)", "hERG current change (%, negative = inhibition) at 1uM": 15.5},
      {"smiles": "O=C(NC(=S)Nc1nc2ccccc2s1)c1ccco1", "hERG current change (%, negative = inhibition) at 1uM": 14.9},
      {"smiles": "O=C(O)C1CCN(c2ccc([N+](=O)[O-])cc2[N+](=O)[O-])CC1", "hERG current change (%, negative = inhibition) at 1uM": 6.97},
      {"smiles": "O=C1c2cccc3cccc(c23)C(=O)N1CCCCCc1n[nH]c(=S)o1", "hERG current change (%, negative = inhibition) at 1uM": -6.54},
      {"smiles": "O=S(=O)(c1ccc2nc(N3CCN(c4ccc(F)cc4)CC3)ccc2c1)N1CCCCC1", "hERG current change (%, negative = inhibition) at 1uM": 9.77},
      {"smiles": "CC(C)OCCCNC(=O)C1CC(=O)N(CCc2ccc(F)cc2)C1", "note": "(centres unmarked)", "hERG current change (%, negative = inhibition) at 1uM": 10.6},
      {"smiles": "S=C(NC1CC1)N1CCCc2ccccc21", "hERG current change (%, negative = inhibition) at 1uM": 3.32},
      {"smiles": "O=C(CSc1nnc(CNC(=O)c2ccc(F)cc2)o1)NCCc1ccccc1", "hERG current change (%, negative = inhibition) at 1uM": 15.2},
      {"smiles": "Cc1cccc(-c2noc(CNC(=O)c3ccc4c(c3)OCO4)n2)c1", "hERG current change (%, negative = inhibition) at 1uM": 2.34},
      {"smiles": "O=C(C1CCN(Cc2cn[nH]c2-c2ccc(F)cc2F)CC1)N1CCOCC1", "hERG current change (%, negative = inhibition) at 1uM": 12.1},
      {"smiles": "CC(Oc1ccc(Br)cc1Br)C(=O)Nc1cccnc1", "note": "(centres unmarked)", "hERG current change (%, negative = inhibition) at 1uM": 13.8},
      {"smiles": "CCCSCCCNC(=O)c1ccc(NC(=O)C2=CSCCO2)cc1", "hERG current change (%, negative = inhibition) at 1uM": 6.09},
      {"smiles": "Cc1cc(Cl)c(S(=O)(=O)Nc2ccccn2)cc1OCC(N)=O", "hERG current change (%, negative = inhibition) at 1uM": -30.4},
      {"smiles": "CC(C)CC(=O)Nc1cc([N+](=O)[O-])ccc1Cl", "hERG current change (%, negative = inhibition) at 1uM": 1.28},
      {"smiles": "Cc1ccc(S(=O)(=O)/N=C(\\c2ccccc2)N(C)S(=O)(=O)c2ccccc2)cc1", "hERG current change (%, negative = inhibition) at 1uM": 5.65},
      {"smiles": "COc1cc(C=O)c(Br)cc1OCc1ccc(C)cc1", "hERG current change (%, negative = inhibition) at 1uM": 8.93},
      {"smiles": "O=C(NCc1ccccc1)c1cccc(COc2ccc3c(c2)CCC3)c1", "hERG current change (%, negative = inhibition) at 1uM": -1.71},
      {"smiles": "COCCCN(C(=O)CSCC(=O)Nc1cccc(C)c1)c1c(N)n(Cc2ccccc2)c(=O)[nH]c1=O", "hERG current change (%, negative = inhibition) at 1uM": 18.4},
      {"smiles": "Cc1cccc(NC(=S)NC2CC3CCCC(C2)N3Cc2ccco2)c1", "note": "(centres unmarked)", "hERG current change (%, negative = inhibition) at 1uM": 4.44},
      {"smiles": "Fc1cc(F)c2nc(N3CCCC3)sc2c1", "hERG current change (%, negative = inhibition) at 1uM": 16},
      {"smiles": "COCCN(C(=O)CSCC(=O)Nc1cccc(C)c1)c1c(N)n(Cc2ccccc2)c(=O)[nH]c1=O", "hERG current change (%, negative = inhibition) at 1uM": 8.65}
    ]}
  ]
}
